# Inconclusive results, whose numbers are uncertain, are shown with a selection of clear calls. For part of these data: Potencies of inconclusive entries are doubtful fits and often do not repeat. For part of these data: A note “side channel” means that the fit belongs to a control or component signal, not to the main read-out. Calls of active or inactive are those of the source. Unless noted, calls follow the shape of the dose curve; as a rule, active = well fitted curve in the direction sought with a large enough effect; inconclusive = small, poorly fitted or top-dose-only effect, or another doubt; inactive = no such curve, though single readings can be large; an effect the other way counts as inactive or inconclusive.
# How the values were obtained:
# [1] = molecular target: phosphoglycerate mutase (Leishmania major) (UniProt Q4Q090); test: qHTS Validation Assay to Find Inhibitors of Phosphoglycerate Mutase (AID 504548); settings: Potency: inhibition qHTS; also: potency is read from the fitted curve at half-maximal effect; as to activity change, negative = inhibition: % is scaled to controls: 0 for no effect and ±100 for the full control effect
# Method in brief: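 Lm PGAM 1.25nM final; 100 mM TEA pH 7.6, 5 mM MgCl2, 0.01% Tween-20; 45 min RT; Kinase-GloPlus, 10 min; end-point luminescence. Enzyme-free wells as negative controls.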
# [2] = molecular target: Ubiquitin carboxyl-terminal hydrolase 2 (Homo sapiens) (UniProt O75604); test: qHTS Validation Assay for Inhibitors of Ubiquitin-specific Protease USP2a Using CHOP2 as the Reporter (AID 463106); also: potency is read from the fitted curve at half-maximal effect
# Sequence of UniProt O75604 (O75604 whole entry, looked up): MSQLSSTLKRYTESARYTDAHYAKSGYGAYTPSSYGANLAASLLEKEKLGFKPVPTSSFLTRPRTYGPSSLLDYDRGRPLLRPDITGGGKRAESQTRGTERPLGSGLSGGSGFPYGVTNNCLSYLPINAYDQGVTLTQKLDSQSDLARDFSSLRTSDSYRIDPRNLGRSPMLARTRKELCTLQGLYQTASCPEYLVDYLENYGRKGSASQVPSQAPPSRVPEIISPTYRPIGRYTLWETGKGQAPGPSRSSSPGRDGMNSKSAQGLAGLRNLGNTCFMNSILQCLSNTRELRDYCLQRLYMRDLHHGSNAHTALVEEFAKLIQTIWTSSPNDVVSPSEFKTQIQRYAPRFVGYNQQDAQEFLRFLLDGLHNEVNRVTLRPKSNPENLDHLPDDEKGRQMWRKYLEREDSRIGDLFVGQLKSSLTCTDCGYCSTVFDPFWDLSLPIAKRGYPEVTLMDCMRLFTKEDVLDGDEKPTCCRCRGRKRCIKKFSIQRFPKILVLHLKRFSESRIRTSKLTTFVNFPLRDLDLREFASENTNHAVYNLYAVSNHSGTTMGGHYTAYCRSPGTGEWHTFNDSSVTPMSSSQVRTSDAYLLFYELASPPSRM
# Method in brief: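 USP2 core (10 nM final) was preincubated with compound 30 min at RT in pH 8.0 Tris/CaCl2/beta-ME/CHAPS buffer. Ub-CHOP2 and reporter substrate (25 nM final each) were then added, with fluorescence (Ex 485/Em 531) read after 60 min. Data were normalized to NEM full inhibition and fitted to concentration-response curves.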
# [3] = Vero cells viability qHTS for Zika virus inhibitors (AID 1347167); also: potency is read from the fitted curve at half-maximal effect
# Method in brief: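 Cells seeded at 2.5 x 10^5 cells/mL in DMEM with 4% FBS and attached overnight at 37 degrees C, then exposed to compound for 24 to 48 hours. Viability read as ATP content by CellTiter Glo luminescence.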
# [4] = Tertiary RLuc qRT-PCR qHTS assay for Zika virus inhibitors (AID 1347169); also: potency is read from the fitted curve at half-maximal effect; nearly all actives have a fitted effect of over 55% in size
# Method in brief: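 Vero cells (1,000 per well) plated overnight at 37 degrees C, treated with compound in DMSO, then infected with recombinant ZIKV-RLuc (Cambodian) at MOI 1-2 for 48-72 hrs. Live-cell Renilla luciferase substrate added; luminescence read after 1-1.5 hrs.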
# [5] = qHTS profiling for inhibitors of Plasmodium falciparum proliferation (AID 504749); also: nearly all actives have a fitted effect of over 60% in size; also: potency is read from the fitted curve at half-maximal effect;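 as to activity, negative = inhibition: 0% = DMSO vehicle and full inhibition = artemisinin control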; settings: P. falciparum in erythrocytes, SYBR Green DNA, 72 h; Potency: parasite line B unless noted; series mostly up to 28.7 µM
# Method in brief: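 P. falciparum-infected erythrocytes (0.3% parasitemia, 2.5% hematocrit) incubated with compound 72 h at 37 C, 5% CO2. Parasite DNA detected by SYBR Green after lysis, overnight at room temperature; normalised to 0.29 uM artemisinin and DMSO.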
# [6] = qHTS of Trypanosoma Brucei Inhibitors: LOPAC Validation (AID 624147); also: potency is read from the fitted curve at half-maximal effect
# Method in brief: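 Enzyme and substrate buffer are dispensed first and compound is pin-transferred. ADP at 130 uM final then starts the reaction, which runs 45 min at room temperature. Detection reagent is added for 10 min before luminescence is imaged.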
# [7] = molecular target: Androgen receptor (Homo sapiens) (UniProt P10275); test: qHTS assay for small molecule antagonists of androgen receptor signaling (AID 588516; active = well fitted curve in the direction sought with a large enough effect in the signal ratio, with a control signal flat, not every such curve was filed as active; inconclusive = small, poorly fitted or top-dose-only effect, or effect the other way, or a change in a side signal; inactive = no such curve, though single readings can be large or run the other way; the % refers to the signal ratio; also: % is scaled to controls: 0 for no effect and ±100 for the full control effect); settings: AR-UAS-bla HEK293, beta-lactamase ratio, antagonist mode, 16 h; activity change, negative = inhibition: at 76.8 µM (top of the series)
# Sequence of UniProt P10275 (P10275 whole entry, looked up): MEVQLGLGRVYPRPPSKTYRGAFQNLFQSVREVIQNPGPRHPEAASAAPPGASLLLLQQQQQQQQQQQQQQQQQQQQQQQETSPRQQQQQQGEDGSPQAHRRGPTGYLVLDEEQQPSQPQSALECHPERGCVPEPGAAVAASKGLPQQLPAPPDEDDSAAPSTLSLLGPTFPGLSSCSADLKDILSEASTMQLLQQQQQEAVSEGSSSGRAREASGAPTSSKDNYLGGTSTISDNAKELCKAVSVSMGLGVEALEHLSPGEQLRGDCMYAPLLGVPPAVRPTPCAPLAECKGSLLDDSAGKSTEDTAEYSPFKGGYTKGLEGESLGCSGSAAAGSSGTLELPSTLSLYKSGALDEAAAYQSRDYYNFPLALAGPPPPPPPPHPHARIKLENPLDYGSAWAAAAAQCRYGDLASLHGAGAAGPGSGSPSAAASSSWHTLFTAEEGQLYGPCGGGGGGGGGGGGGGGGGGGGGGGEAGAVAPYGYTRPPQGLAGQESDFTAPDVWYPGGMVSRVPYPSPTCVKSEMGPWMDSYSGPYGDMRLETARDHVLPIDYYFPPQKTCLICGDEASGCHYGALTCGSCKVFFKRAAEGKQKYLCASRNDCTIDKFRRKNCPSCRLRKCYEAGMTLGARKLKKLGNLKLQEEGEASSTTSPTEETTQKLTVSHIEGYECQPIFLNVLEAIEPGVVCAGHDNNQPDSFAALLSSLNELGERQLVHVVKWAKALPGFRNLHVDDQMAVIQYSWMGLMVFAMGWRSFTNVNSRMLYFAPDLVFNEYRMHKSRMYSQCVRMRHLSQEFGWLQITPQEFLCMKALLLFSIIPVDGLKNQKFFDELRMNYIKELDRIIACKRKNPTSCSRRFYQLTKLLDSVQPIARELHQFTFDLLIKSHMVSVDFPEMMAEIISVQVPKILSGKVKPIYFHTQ
# Method in brief: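 Antagonist mode: inhibition of R1881-stimulated (10 nM final) bla reporter in GeneBLAzer AR HEK 293 cells, 16 h at 37C, compounds titrated. IC50 and efficacy from Hill-equation fits of 405/460–530 nm FRET ratios.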
# [8] = molecular target: Peroxisome proliferator-activated receptor delta (Homo sapiens) (UniProt Q03181); test: qHTS assay for small molecule agonists of peroxisome proliferator-activated receptor delta signaling (AID 588534; calls by dose curve;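 also: 0% = DMSO basal wells and 100% = positive control agonist at 10 µM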); settings: HEK293T PPARdelta-UAS-bla, beta-lactamase ratio, 18 h; activation: at 76.7 µM (top of the series)
# Sequence of UniProt Q03181 (Q03181 whole entry, looked up): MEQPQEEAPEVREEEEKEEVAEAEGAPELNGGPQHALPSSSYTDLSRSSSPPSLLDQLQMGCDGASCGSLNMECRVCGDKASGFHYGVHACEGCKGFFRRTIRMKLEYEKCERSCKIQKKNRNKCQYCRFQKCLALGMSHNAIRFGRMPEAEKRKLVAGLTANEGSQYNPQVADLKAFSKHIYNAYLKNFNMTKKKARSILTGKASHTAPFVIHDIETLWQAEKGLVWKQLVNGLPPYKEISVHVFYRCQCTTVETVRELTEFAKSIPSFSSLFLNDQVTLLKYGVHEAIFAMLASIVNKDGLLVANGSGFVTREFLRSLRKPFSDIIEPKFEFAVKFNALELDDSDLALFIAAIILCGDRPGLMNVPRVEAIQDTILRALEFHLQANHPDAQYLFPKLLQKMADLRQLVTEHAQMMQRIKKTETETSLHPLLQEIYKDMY
# Method in brief: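 Cells carrying a PPAR-delta beta-lactamase reporter were treated with compounds for 18 h at 37 °C in agonist mode. CCF4 fluorescence was read after 2 h; EC50 and efficacy from Hill fits.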
# [9] = molecular target: Peroxisome proliferator-activated receptor delta (Homo sapiens) (UniProt Q03181); test: qHTS assay for small molecule antagonists of peroxisome proliferator-activated receptor delta signaling (AID 588535; active = well fitted inhibition curve with a large enough effect in the signal ratio, with a control signal flat, not every such curve was filed as active; inconclusive = small, poorly fitted or top-dose-only effect, or effect the other way, or a change in a side signal; inactive = no such curve, though single readings can be large or run the other way; the % refers to the signal ratio); settings: HEK293T PPARd-UAS-bla, beta-lactamase FRET ratio, 18 h; activity change, negative = inhibition: at 76.7 µM (top of the series)
# Method in brief: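 Antagonist-mode beta-lactamase reporter (GeneBLAzer PPAR-delta-UAS-bla) in HEK293T cells, 2% charcoal/dextran FBS, 4000 cells/well. Compound titrations, 18 h at 37 C; CCF4 ratio read, IC50 and efficacy from Hill fits.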
# [10] = molecular target: Peroxisome proliferator-activated receptor gamma (Homo sapiens) (UniProt P37231); test: qHTS assay for small molecule agonists of peroxisome proliferator-activated receptor gamma signaling (AID 588536; active = well fitted curve in the direction sought with a large enough effect in the signal ratio, with a control signal flat, not every such curve was filed as active; inconclusive = small, poorly fitted or top-dose-only effect, or effect the other way, or a change in a side signal; inactive = no such curve, though single readings can be large or run the other way; the % refers to the signal ratio; also: potency is read from the fitted curve at half-maximal effect;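 as to activation: 0% = DMSO basal wells and 100% = rosiglitazone at 2 µM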); settings: HEK293 PPARg-UAS-bla, beta-lactamase ratio, 16 h; activation: at 76.7 µM (top of the series), percent of rosiglitazone response, DMSO as zero
# Method in brief: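 PPAR-gamma-UAS-bla HEK293 cells in medium with 1% charcoal/dextran-treated FBS were exposed to compounds for 16 h at 37 C. Beta-lactamase activity was read with CCF4 substrate (405 nm excitation, 460/530 nm emission).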
# [11] = molecular target: Peroxisome proliferator-activated receptor gamma (Homo sapiens) (UniProt P37231); test: qHTS assay for small molecule antagonists of peroxisome proliferator-activated receptor gamma signaling (AID 588537; active = well fitted inhibition curve with a large enough effect in the signal ratio, with a control signal flat, not every such curve was filed as active; inconclusive = small, poorly fitted or top-dose-only effect, or effect the other way, or a change in a side signal; the % refers to the signal ratio;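 also: reporter cells co-stimulated with 50 nM rosiglitazone agonist during compound treatment; % of control where 0% means no effect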); settings: HEK293 PPARg-UAS-bla, beta-lactamase ratio, antagonist mode; activity, negative = inhibition: at 76.8 µM (top of the series)
# Method in brief: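 PPARγ-UAS-bla HEK293 cells (3000/well) in 1% charcoal/dextran-stripped FBS are treated with compound, then stimulated with 50 nM rosiglitazone for 16 h at 37 °C. Read-out is CCF4 β-lactamase fluorescence after 2 h at RT. IC50 comes from Hill fits normalised to rosiglitazone and DMSO.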
# [12] = molecular target: Vitamin D3 receptor (Homo sapiens) (UniProt P11473); test: qHTS assay for small molecule antagonists of vitamin D receptor signaling (AID 588541; calls by dose curve;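 also: receptor activated by calcitriol during compound treatment; % is scaled to controls: 0 for no effect and ±100 for the full control effect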); settings: HEK293T VDR-UAS-bla, beta-lactamase ratio, antagonist mode; activity change, negative = inhibition: at 76.7 µM (top of the series) unless noted
# [13] = molecular target: Retinoic acid receptor RXR-alpha (Homo sapiens) (UniProt P19793); test: qHTS assay for small molecule antagonists of retinoid X receptor alpha signaling (AID 588546; active = well fitted inhibition curve with a large enough effect in the signal ratio, with a control signal flat, not every such curve was filed as active; inconclusive = small, poorly fitted or top-dose-only effect, or effect the other way, or a change in a side signal; inactive = no such curve, though single readings can be large or run the other way; the % refers to the signal ratio; also: potency is read from the fitted curve at half-maximal effect); settings: HEK293T RXRa-UAS-bla, beta-lactamase ratio, antagonist mode
# Sequence of UniProt P19793 (P19793 whole entry, looked up): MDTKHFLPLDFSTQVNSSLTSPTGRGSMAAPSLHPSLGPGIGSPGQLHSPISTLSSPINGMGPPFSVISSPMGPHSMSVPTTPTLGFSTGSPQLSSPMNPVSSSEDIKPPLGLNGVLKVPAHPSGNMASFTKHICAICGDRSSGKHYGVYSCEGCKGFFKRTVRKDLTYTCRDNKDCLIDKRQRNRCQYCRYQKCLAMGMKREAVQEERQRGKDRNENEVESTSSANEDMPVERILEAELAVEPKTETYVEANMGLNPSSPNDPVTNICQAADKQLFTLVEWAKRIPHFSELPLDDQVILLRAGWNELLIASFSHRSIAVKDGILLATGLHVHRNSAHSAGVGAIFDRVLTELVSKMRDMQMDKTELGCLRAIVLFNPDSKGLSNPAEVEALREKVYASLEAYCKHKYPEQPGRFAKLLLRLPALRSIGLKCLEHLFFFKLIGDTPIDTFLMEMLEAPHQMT
# Method in brief: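 Beta-lactamase reporter inhibition, read as CCF4 fluorescence ratio (ex 405, em 460/530 nm) after 2 h at RT. HEK293T UAS-bla cells, 2500/well, were stimulated with 9-cis-RA at 500 or 100 nM final alongside test compound for 18 h at 37 C.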
# [14] = qHTS assay for small molecule agonists of the antioxidant response element (ARE) signaling pathway (AID 651741; active = well fitted activation curve with a large enough effect in the signal ratio; inconclusive = small, poorly fitted or top-dose-only effect, or effect the other way, or a change in a side signal; the % refers to the signal ratio; also: potency is read from the fitted curve at half-maximal effect); settings: HepG2 ARE-bla reporter, beta-lactamase FRET ratio, 16 h; activation: at 96 µM (top of the series)
# Method in brief: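 CellSensor ARE-bla HepG2 cells (2,000/well) carrying ARE-driven beta-lactamase, exposed 16 h at 37 C. LiveBLAzer B/G FRET substrate added for 2 h at room temperature; fluorescence intensity read.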
# [15] = molecular target: Glucocorticoid receptor (Homo sapiens) (UniProt P04150); test: GR-GFP Redistribution (AID 450;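 active = compounds whose dose series gives a full or clear partial fitted curve of increased nuclear translocation; inconclusive = weak partial curve or effect only at the top dose; inactive = no dose-dependent translocation response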; also: potency is read from the fitted curve at half-maximal effect); settings: U2OS GR-GFP nuclear translocation, laser cytometry, 2 h
# Sequence of UniProt P04150 (P04150 whole entry, looked up): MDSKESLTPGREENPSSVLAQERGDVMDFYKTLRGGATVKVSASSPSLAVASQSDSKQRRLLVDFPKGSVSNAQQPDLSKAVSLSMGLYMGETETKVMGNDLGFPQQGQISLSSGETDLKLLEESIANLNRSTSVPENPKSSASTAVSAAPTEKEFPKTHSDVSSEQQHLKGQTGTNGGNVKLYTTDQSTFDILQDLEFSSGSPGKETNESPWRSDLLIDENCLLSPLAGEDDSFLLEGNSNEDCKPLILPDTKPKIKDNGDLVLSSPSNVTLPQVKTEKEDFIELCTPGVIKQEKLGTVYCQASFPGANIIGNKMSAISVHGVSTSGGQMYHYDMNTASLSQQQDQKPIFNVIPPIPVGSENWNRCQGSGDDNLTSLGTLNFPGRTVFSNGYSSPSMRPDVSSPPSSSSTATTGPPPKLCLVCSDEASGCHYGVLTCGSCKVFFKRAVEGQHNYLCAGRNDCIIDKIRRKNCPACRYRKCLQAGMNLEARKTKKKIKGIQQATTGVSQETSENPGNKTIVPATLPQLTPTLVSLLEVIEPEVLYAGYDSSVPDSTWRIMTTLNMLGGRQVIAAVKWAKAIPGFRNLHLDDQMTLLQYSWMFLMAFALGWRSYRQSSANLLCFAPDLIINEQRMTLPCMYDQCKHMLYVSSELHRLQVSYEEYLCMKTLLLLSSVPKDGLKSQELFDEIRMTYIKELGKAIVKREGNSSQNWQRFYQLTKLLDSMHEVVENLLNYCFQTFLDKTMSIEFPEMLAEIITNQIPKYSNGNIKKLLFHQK
# [16] = molecular target: D(1A) dopamine receptor (Homo sapiens) (UniProt P21728); test: HTS Assay for Allosteric Agonists of the Human D1 Dopamine Receptor: Primary Screen for Agonists (AID 488981); also: potency is read from the fitted curve at half-maximal effect
# Sequence of UniProt P21728 (P21728 whole entry, looked up): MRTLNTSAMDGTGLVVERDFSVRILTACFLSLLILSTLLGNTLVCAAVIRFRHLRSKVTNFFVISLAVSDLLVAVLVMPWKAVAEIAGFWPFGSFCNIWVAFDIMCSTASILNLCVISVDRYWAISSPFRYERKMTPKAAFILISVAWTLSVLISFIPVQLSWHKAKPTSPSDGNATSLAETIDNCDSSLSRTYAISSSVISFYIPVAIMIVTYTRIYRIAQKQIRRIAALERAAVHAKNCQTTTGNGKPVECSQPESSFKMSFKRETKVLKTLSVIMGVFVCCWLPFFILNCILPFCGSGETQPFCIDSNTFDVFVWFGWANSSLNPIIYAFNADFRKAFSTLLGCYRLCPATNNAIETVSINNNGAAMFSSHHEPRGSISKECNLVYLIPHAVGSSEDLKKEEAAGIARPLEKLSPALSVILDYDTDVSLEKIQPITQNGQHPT
# Method in brief: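 Tetracycline-induced HEK293 Trex D1 cells with forced coupling to calcium, loaded with no-wash calcium dye; kinetic fluorescence read 180 s after compound addition for agonism, then a further 180 s after an EC20 dopamine challenge for potentiation.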
# [17] = tested on: Zika virus NS2B-NS3 protease; test: Primary screen GU AMC qHTS for Zika virus inhibitors (AID 1347154); also: potency is read from the fitted curve at half-maximal effect; nearly all actives have a fitted effect of over 70% in size
# Method in brief: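 Unlinked Zika NS2B hydrophilic domain–NS3 protease complex at 25 nM in 10 mM Tris-HCl pH 8.0, 0.01% Tween 20, with an AMC peptide substrate. Fluorescence change (340/450 nm) over 15 min at room temperature, normalized to controls, fitted to 4-parameter Hill.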
# Tags tell the direction and shape of the fitted curve or compound fluorescence and quenching.
smiles,measurement,setting,value
O=c1oc(Cl)c(Cl)c2ccccc12,Potency,[1],inactive
CCCC1(C)C(C#N)(C#N)C1(C#N)C#N,Potency,[1],"inconclusive: 0.0151 µM [inhibitor, partial curve, poor fit]"
COc1cc(/C=C(\C#N)C(=O)Nc2nnc(C(F)(F)F)s2)ccc1OCc1ccc(C(F)(F)F)cc1C(F)(F)F,Potency,[2],"inconclusive: 16.5 µM [falling, single point]"
same,Potency,[3],"inconclusive: 9.3 µM [cytotoxic, single point]"
same,Potency,[4],"inconclusive: 4.15 µM [inhibitor, full curve]"
CN1C2CCC1CC(OC(c1ccccc1)c1ccccc1)C2 (centres undefined),Potency,[5],"inconclusive: 17.8 µM [inhibitor, single point]"
O=C(c1cc(O)c(O)c([N+](=O)[O-])c1)c1ccccc1F,Potency,[3],"inconclusive: 37 µM [cytotoxic, single point]"
same,Potency,[4],"inconclusive: 26.2 µM [inhibitor, single point]"
N#CC(=C(\N)Sc1ccccc1N)/C(C#N)=C(/N)Sc1ccccc1N,Potency,[6],"inconclusive: 23.9 µM [inhibitor, single point]"
CC[C@@H]1Cc2cc(O)ccc2C2=C1c1ccc(O)cc1C[C@H]2CC,"activity change, negative = inhibition",[7],inconclusive: -74.7%
same,activation,[8],inconclusive: 8.02%
same,"activity change, negative = inhibition",[9],inconclusive: -65.7%
same,Potency,[10],"inconclusive: 50.1 µM [side channel, falling, partial curve, poor fit]"
same,"activity, negative = inhibition",[11],inconclusive: -105%
same,"activity change, negative = inhibition",[12],inconclusive: -74.6%
same,Potency,[13],"inconclusive: 39.8 µM [cytotoxic, side channel, partial curve, poor fit]"
same,Potency,[14],"inconclusive: 54.5 µM [cytotoxic, side channel, partial curve]"
C=C1C(=O)O[C@@H]2[C@H]3O[C@]3(C)CCC=C(C)CC[C@@H]12,Potency,[15],inconclusive: 51.3 µM [partial curve]
CC[n+]1c(/C=C/C=C2/N(C)c3ccccc3C2(C)C)sc2ccccc21,Potency,[2],"inconclusive: 16.5 µM [fluorescent, partial curve]"
same,Potency,[16],active: 11.2 µM
same,Potency,[1],active: 19 µM
same,Potency,[6],"inconclusive: 23.9 µM [inhibitor, partial curve]"
S=C(S)N1CCCC1,Potency,[15],inconclusive: 28.6 µM [single point]
same,Potency,[6],active: 23.9 µM
O=c1[nH]c2cc(C(F)(F)F)ccc2n1-c1cc(C(F)(F)F)ccc1O,Potency,[16],"inconclusive: 20 µM [activator, single point]"
same,Potency,[1],inactive
OCC1O[C@H]([S-])[C@H](O)[C@@H](O)[C@@H]1O.[Au+] (some centres undefined),Potency,[6],"inconclusive: 2.69 µM [inhibitor, partial curve, poor fit]"
CC[C@@H](C)[C@H]1O[C@]2(CC[C@H]1C)C[C@@H]1C[C@@H](CC=C(C)[C@@H](O[C@H]3C[C@H](OC)[C@@H](O[C@H]4C[C@H](OC)[C@@H](O)[C@H](C)O4)[C@H](C)O3)[C@@H](C)C=CC=C3CO[C@@H]4[C@H](O)C(C)=C[C@@H](C(=O)O1)[C@]34O)O2,Potency,[3],"inconclusive: 37 µM [cytotoxic, single point]"
same,Potency,[4],active: 3.7 µM
O=C1Nc2ccc(I)cc2/C1=C/c1cc(Br)c(O)c(Br)c1,Potency,[2],"inconclusive: 16.5 µM [falling, single point]"
same,Potency,[16],"inconclusive: 8.91 µM [activator, partial curve]"
same,Potency,[17],"inconclusive: 8.44 µM [inhibitor, single point]"
NC(=Nc1ccccc1)NC(=O)c1nc(Cl)c(N)nc1N,Potency,[17],"inconclusive: 23.8 µM [inhibitor, single point]"
CC1(C)CCC(NC(=O)[C@@H](N)CCC(=O)O)CC1,Potency,[5],inactive
O=C(Nc1ccccc1)c1cc([N+](=O)[O-])ccc1Cl,"activity change, negative = inhibition",[7],inconclusive: -19.3%
same,activation,[10],inconclusive: 14.1%
same,"activity, negative = inhibition",[11],inconclusive: -65%
same,Potency,[14],active: 1.22 µM
CCCCCCCC/C=C\CCCCCCCC(=O)NCCO,Potency,[15],inconclusive: 30.6 µM [partial curve]

# From PubChem BioAssay (NCATS)
